# In PMC12136788:
# The other results are listed elsewhere or left out.
# B1: chr1:117959336:117959438:+|CDS|ENSG00000065183|unk|FALSE|unique (ssRNA)
# RNA: GGGAGUUCUACAGUCCGACGAUCGAUUAUCUCAAGAGGGAAUGCGAGGCAAAAAGUGAAGUUAUGUUUUUUGCUGAUGCUACUAGCCACUUGGAAGAGAAGAAGAGGAAGAGGAAAAAGAGGGAGAAGUUGAUUCUAACGUUGCAACAGAGGAUUGAGCAUCA
# B2: chr14:71588152:71588260:+|CDS|ENSG00000197555|unk|total|mutant (ssRNA)
# RNA: GGGAGUUCUACAGUCCGACGAUCGAAAACAUAAAAGAAUCCCGCCGUUCAAGCCAGGAAACCGAAACCUCAAGUUGCCUUGACCGCCUGUCCUCCAAAAGCAGUCCUGUGAGUCAGGGAAGUUCUGUCCGCCUCAAUUCCAAUCAACAGAGGAUUGAGCAUCA
# B3: chr11:839720:840371:-|three_prime_utr|ENSG00000177700|control|control|control (ssRNA)
# RNA: GGGAGUUCUACAGUCCGACGAUCACUCUGGAAGGAACCAUCCAGUAAAGGUCUUUCAGAACCACUAAGGUCCCAGCCCUCACUAGGAUGUCAGGAGCCAGGUCUAGGCCCAGCUUUCACACUGUGGCAGCCCAGUGAAGCAGACAACAGAGGAUUGAGCAUCA
# B4: chr11:95129132:95129233:+|CDS|ENSG00000149218|msi1|FALSE|bound_elsewhere (ssRNA)
# RNA: GGGAGUUCUACAGUCCGACGAUCAAUCCUGAAGAACAUUGUCUAUUUCCUGUGGUGUGUUACCAAGCAGGUGAUUAAUGGCAUAGAAAGUUGCCUUUACCGCCUGGGCUCAGCCACCAUCUCAUACUUCAUGGCCAUUGGGGACAACAGAGGAUUGAGCAUCA
# B5: chr13:24435276:24435388:-|CDS|ENSG00000102699|unk|FALSE|unique (ssRNA)
# RNA: GGGAGUUCUACAGUCCGACGAUCCAAAAGAAAAAUGGAAUUAUCUCAGCCAGAAGUUUCUGAAGAUUUUGAAGAGGAUGGCUUAGGUGUACUACCAGCUUUCACAUCAAAUUUGGAACGUGGAGGUGUGGAAAAGCUAUUGGACAACAGAGGAUUGAGCAUCA
# B6: chr12:3284029:3284272:+|3pUTR|ENSG00000011105|msi1|FALSE|unique (ssRNA)
# RNA: GGGAGUUCUACAGUCCGACGAUCCAUGUGGGUAUUCCCACAACAGGUUCUGCACACCCCAGUUAUUUCACAGACAUUCCUGCUAGAAACUGUCAGACAAAUACCUCUCUAGUUCGGAUGCUGCUCACUUUCCCCCUUGCUUCUCAACAGAGGAUUGAGCAUCA
# Target: MSI1 full-length (mouse, UniProt Q61474 1-362)
# Assay: nsRBNS (natural sequence RNA bind-n-seq); RBNS binding buffer (assumed for nsRBNS): 25 mM Tris pH 7.5, 150 mM KCl, 3 mM MgCl2, 0.01% Triton X-100, 500 ug/ml BSA, 20 U/ml SUPERase-In, 4 C; UNK is unkempt and MSI1 is Musashi-1; names of the RNAs are library labels; protein concentration not given here; high values mean tight binding
# Chain of UniProt Q61474 (Q61474 whole entry): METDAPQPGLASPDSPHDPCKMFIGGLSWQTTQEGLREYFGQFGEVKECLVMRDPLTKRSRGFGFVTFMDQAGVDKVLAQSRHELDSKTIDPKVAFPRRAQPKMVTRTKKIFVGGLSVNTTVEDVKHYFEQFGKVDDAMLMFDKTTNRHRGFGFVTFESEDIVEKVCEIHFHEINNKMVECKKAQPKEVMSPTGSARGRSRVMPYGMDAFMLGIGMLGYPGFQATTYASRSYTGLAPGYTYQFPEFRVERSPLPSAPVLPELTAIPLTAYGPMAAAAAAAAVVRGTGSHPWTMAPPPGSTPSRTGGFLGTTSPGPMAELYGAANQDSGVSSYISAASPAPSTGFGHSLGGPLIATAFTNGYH
row,Binder,binding signal [enrichment R]
1,B1,0.56
2,B2,0.59
3,B3,0.386
4,B4,0.347
5,B5,0.305
6,B6,0.685
